According to PubChem BioAssay AID463173 (ICCB-Longwood Screening Facility, Harvard Medical School, 2010):
Out of some 52,000 compounds screened, about 1,700 (3.3%) were called active. Rule as the data show it: active = survival mostly below about 52% (no sharp cut-off); inactive = mostly above about 56%. The list shows a part of the results.

Each compound was assayed on Wild type (assay: growth inhibition of S. aureus wild type versus tarO mutant, primary screen, teichoic acid synthesis inhibitors, RN4220, OD600 (AID 463173)). Conditions: S. aureus RN4220 wild type/DeltatarO growth, OD600, 18 h, stronger effect = lower value, screened at 18.75 µg/mL (by protocol).

SMILES | survival
COc1ccccc1NC(=O)c1cc2cc3ccc(OC)c(Cl)c3nc2s1 | inactive: 79%
O=c1c(Cl)c(N2CCN(CCO)CC2)cnn1-c1ccccc1 | inactive: 107%
COC(=O)c1c(NC(=O)c2cc(=O)c3cc(C)cc(C)c3o2)sc2c1CCC2 | inactive: 86%
CCOC(=O)c1ccc(NC(=O)c2nc(SCc3ccc(F)cc3)ncc2Cl)cc1 | inactive: 110%
Cc1ccc(CC(=O)NCc2nc(-c3ccccc3)no2)cc1 | inactive: 89%
O=C(NCCc1ccccc1Cl)c1cc2ccccn2n1 | inactive: 140%
CCCCn1c(=O)c2oc3ccccc3c2n(Cc2ccc(C)cc2)c1=O | inactive: 86%
Cc1cc(SCC(=O)Nc2ccc(F)cc2F)nc(=O)[nH]1 | inactive: 115%
COc1ccc2ncc3c(-c4ccc(C)c(C)c4)nn(CC(=O)Nc4ccccc4)c3c2c1 | inactive: 81%
CCCN(CCC)CN1C(=O)S/C(=C/c2ccc(N(CC)CC)cc2)C1=O | inactive: 116%
O=C(Cn1cc(S(=O)(=O)Cc2ccccc2F)c2ccccc21)Nc1ccc(F)c(Cl)c1 | inactive: 77%
COc1ccc(CNc2ncnc3c2c(-c2ccccc2)cn3-c2ccc(C)c(Cl)c2)cc1 | inactive: 73%
COc1ccc(NC(=O)Cn2c(=O)n(-c3ccc(OC)cc3)c(=O)c3sc4ccccc4c32)cc1 | inactive: 134%
COc1ccc2c(CNCc3ccco3)c(C(=O)O)n(Cc3cccc(F)c3)c2c1 | inactive: 57%
COc1cccc(C(=O)Nc2nc(-c3nnn(-c4cccc(Cl)c4C)c3C)ns2)c1 | active: -6%
COc1ccc(C(=O)Nc2ccc(-c3nc4ccccc4s3)c(Cl)c2)cc1Cl | inactive: 98%
Cn1c(NCCCO)nc2c1c(=O)n(Cc1cccc(F)c1)c(=O)n2C | inactive: 88%
CCCN(CCC)C(=O)C1CCN(c2cc(C)nc3c(-c4ccc(Cl)cc4)c(C)nn23)CC1 | inactive: 87%
O=C(NCCO)c1ccc(-c2nnc(Nc3ccc(OC(F)(F)Cl)cc3)c3ccccc23)cc1 | inactive: 126%
COc1cc(C(=O)Nc2cc(C)c(O)c(-c3nc4ccccc4s3)c2)cc(OC)c1OC | inactive: 83%
Cc1ccc(C)c(NC(=O)c2oc(=O)c3ccccc3c2-c2ccccc2)c1 | inactive: 57%
Cc1cc2nc(-c3ccc(OCc4ccccc4F)cc3)cc(C(F)(F)F)n2n1 | inactive: 75%
CCCc1nn2c(=O)cc(COC(=O)c3ccc4c(c3)OCO4)nc2s1 | inactive: 72%

SMILES | survival
O=C1/C(=N\O)CCc2c1no[n+]2[O-] | inactive: 98%
Cn1c(NCCN)nc2c1c(=O)n(Cc1ccccc1)c(=O)n2C | inactive: 86%
CCN(CC)N=Nc1ccc(S(=O)(=O)N2CCSC2C(=O)O)cc1 (centres undefined) | inactive: 109%
CCOC(=O)c1cccc(NC(=O)C2=C(C)C(=O)OC23CCCCC3)c1 | inactive: 82%
Cc1ccc(C)c(N2CCN(C(=O)Cn3cnc4nc5c(cc4c3=O)CCCC5)CC2)c1 | inactive: 76%
Cc1ccc(C)c(Cn2c(SCC(=O)NCc3ccccc3)nc3ccccc32)c1 | inactive: 69%
CCC(=O)N1CCc2cc(S(=O)(=O)NC(Cc3ccccc3)C(=O)Nc3cccc(OC)c3)ccc21 (centres undefined) | inactive: 79%
Cc1cccc(N(C)c2ccc3cc(S(=O)(=O)N4CCCC4)ccc3n2)c1 | inactive: 72%
Cc1ccc2c(c1)c(N1CCCC1=O)c(C(=O)Nc1ccc(F)cc1F)n2C | inactive: 83%
O=C(CCCCCn1c(=O)[nH]c2ccccc2c1=O)NCc1ccccc1 | inactive: 83%
O=C(C1CCCN(S(=O)(=O)c2cccc3nsnc23)C1)N1CCN(c2ccccc2Cl)CC1 (centres undefined) | inactive: 126%
Cc1ccc(-c2nnc3c4ccccc4c(C)nn23)cc1NC(=O)c1ccccc1Cl | inactive: 68%
COc1cccc(N2CCN(c3ncnc4onc(-c5ccc(F)cc5)c34)CC2)c1 | inactive: 70%
Cc1ccc(S(=O)(=O)c2nnn3c2nc(N2CCCC2)c2sccc23)cc1 | inactive: 111%
CCOC(=O)c1cc(S(=O)(=O)N2CCN(c3ccc(C)cc3C)CC2)[nH]n1 | inactive: 72%
Cc1ccc(C)c(NC(=O)CSC2=Nc3ccccc3N=C(c3ccc(F)cc3)C2)c1 | inactive: 79%
CN(C)c1ccc(NC(=O)Cn2cc(S(=O)(=O)Cc3cccc(Cl)c3)c3ccccc32)cc1 | inactive: 60%
Cc1nc2scc(C)n2c(=O)c1S(=O)(=O)N1CCN(c2cccc(C(F)(F)F)c2)CC1 | inactive: 59%
COc1ccc(N2CC(NC(=O)c3cc4ccccc4o3)CC2=O)cc1 (centres undefined) | inactive: 74%
Clc1ccccc1CN1CCN(Cc2ccco2)CC1 | inactive: 101%
CC(=O)c1cc(-c2ccccc2)n(CCC(=O)Nc2ccc(C)cc2C)c1C | inactive: 85%
COC(=O)c1c(NC(=O)Nc2ccc(Cl)cc2)sc(C)c1C | inactive: 82%
COc1ccccc1CNC(=O)CCC1N=C2c3ccccc3N=C(SCc3ccc(C)cc3)N2C1=O (centres undefined) | inactive: 118%

SMILES | survival
C=CCn1c(CNC(=O)c2ccccc2)n[nH]c1=S | inactive: 110%
O=C(COC(=O)C1CC(=O)N(Cc2ccco2)C1)c1ccc(OC(=O)c2ccco2)cc1 (centres undefined) | inactive: 85%
CC1CCN(C(=O)c2ccc(N3C(=O)c4ccccc4C3=O)cc2)CC1 | inactive: 108%
CC1Cc2cc(S(=O)(=O)NCCc3ccccc3)ccc2N1C(=O)C1CCC1 (centres undefined) | inactive: 58%
CCCc1nnc(NC(=O)c2cc(=O)c3cc(Cl)ccc3o2)s1 | inactive: 77%
COc1ccc(CCC(=O)NCCc2csc(-c3ccc(C(F)(F)F)cc3)n2)cc1 | inactive: 80%
O=S1(=O)c2ccccc2-c2cc(Br)ccc21 | inactive: 121%
Cc1ccc2c(c1)N(C(=O)Nc1cccc(C)c1C)CCO2 | inactive: 89%
CS(=O)(=O)N1CCc2cc(C(=O)N3CCN(c4ccccc4)CC3)ccc21 | inactive: 89%
CC1CCC(N2CC(=O)N(C3CCCCC3)C(c3ccc(F)cc3)C2=O)CC1 (centres undefined) | inactive: 99%
COc1ccc(CNCCC(c2ccccc2)c2ccc3c(c2)OCO3)cc1 (centres undefined) | active: 3%
O=C(NC1CCN(C(=S)NCc2ccco2)CC1)NC12CC3CC(CC(C3)C1)C2 | inactive: 108%
Cc1cc(C)cc(Oc2c(F)c(F)c(F)c(F)c2F)c1 | inactive: 96%
Cc1cc(Br)ccc1NC(=O)c1ccc(NS(=O)(=O)c2c(C)noc2C)cc1 | inactive: 62%
CCCC1=Nc2cc(C(=O)NCCc3ccccc3)ccc2Sc2ccc(C)cc21 | inactive: 98%
CCNC(=S)N1C2CCCC1CC(NC(=O)C1CC1)C2 (centres undefined) | inactive: 95%
CCOc1ccc(NC(=O)/C=C\C(=O)N(c2ccc(C(C)C)cc2)C(C(=O)NCc2ccco2)c2ccc(F)cc2)cc1 (centres undefined) | inactive: 51%
CCOc1ccc(-c2nc(SCC(=O)NC3CCCC3)c(-c3ccccc3)[nH]2)cc1OC | inactive: 73%
COc1ccc(NC(=O)Cn2cnc3ccc(S(=O)(=O)N4CCC(C)CC4)cc3c2=O)cc1OC | inactive: 80%
COc1cccc(-c2nc(SCC(=O)NC3CCCC3)c(-c3ccccc3)[nH]2)c1 | inactive: 72%
CC(C)=CC(=O)Nc1nnc(Cc2ccccc2)s1 | inactive: 111%
Cc1ccc(-c2noc(CCCC(=O)NCc3ccco3)n2)cc1 | inactive: 88%
CCOc1ccc(CCNC(=O)CSc2cc(=O)n(C)c3cc(Cl)ccc23)cc1OCC | inactive: 80%

SMILES | survival
O=C(CSc1nc(-c2cccs2)nc2cc(=O)[nH]n12)Nc1ccccc1F | inactive: 60%
CCCOc1ccc(C(=O)Nc2ccc(Cl)c(-c3nc4ncccc4o3)c2)cc1 | inactive: 84%
CCOc1ccc(CCNC(=O)CCc2c(C)nc3cc(-c4ccccc4OC)nn3c2C)cc1 | inactive: 88%
CSc1ccc(CCNC(=O)CN2C(=O)c3cccnc3Oc3ccc(Cl)cc32)cc1 | inactive: 84%
Nc1nnc2c(Nc3ccccc3)nc3nonc3n12 | inactive: 115%
Cc1c(-c2nsc(NC(=O)c3cccc(Cl)c3)n2)nnn1-c1ccccc1C(F)(F)F | active: -6%
COc1cc(C(=O)N2CCc3c([nH]c4ccccc34)C2c2ccc(C)cc2)cc(OC)c1OC (centres undefined) | inactive: 95%
Nc1c(-c2nc(-c3ccc4c(c3)OCO4)cs2)c2ccccn2c1C(=O)c1ccccc1 | inactive: 86%
CCC(C(=O)Nc1ccccc1OC)n1nc(C)c2sc3ccccc3c2c1=O (centres undefined) | inactive: 93%
Cc1ccc(C)c(OCC(=O)Nc2ccc(S(=O)(=O)Nc3onc(C)c3C)cc2)c1C | inactive: 152%
Cc1ccc(NC(=O)c2c(C)oc3nc(C)nc(N4CCCC4)c23)c(C)c1 | inactive: 79%
CCN(CCCNC(=O)CSc1cc(=O)n(CC)c2ccccc12)c1cccc(C)c1 | inactive: 75%
CC(Sc1cn(CCNC(=O)c2ccccc2F)c2ccccc12)c1ccccc1 (centres undefined) | inactive: 44%
COc1cccc(-n2c(C)c3c(OC)cccc(=O)c3c2C)c1 | inactive: 99%
Cc1ccc2c(=O)c(C(=O)c3ccc(Cl)cc3)cn(CC(=O)NC3CCCCC3)c2n1 | inactive: 83%
COc1ccc(NC(=O)c2c(NCc3sccc3C)sc3c2CCCCC3)c(OC)c1 | inactive: 94%
COc1ccc(C)cc1NC(=O)Cn1c(=O)ccc2cc(S(=O)(=O)N3CCC(C)CC3)ccc21 | inactive: 87%
CCOc1ccc(CCNC(=O)c2ccc(CS(=O)Cc3cccc(Cl)c3)o2)cc1 (centres undefined) | inactive: 56%
COC(=O)c1ccc(NC(=O)CSc2ncc3c(n2)-c2cc(Cl)ccc2N(Cc2ccccc2)S3(=O)=O)cc1 | inactive: 49%
Cc1ccccc1-c1nnc(SCC(=O)c2ccccc2)o1 | inactive: 110%
